# According to PMC4336329 (PLoS ONE, 2015):
# Hit rate of the full screen: of about 310,000 compounds, about 14,000 (4.5%) showed an effect of 50% or more. The effect is printed as a negative number. Some of the results follow.
# Biological target: human ether-à-go-go-related gene (hERG) potassium channel (human, UniProt Q12809)
# Assay: primary screen, population patch clamp on CHO cells stably expressing hERG
# 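Further: peak tail current of the secondary pulse compared with the same well before compound.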
# Sequence of human ether-à-go-go-related gene (hERG) potassium channel (Q12809 whole entry, looked up): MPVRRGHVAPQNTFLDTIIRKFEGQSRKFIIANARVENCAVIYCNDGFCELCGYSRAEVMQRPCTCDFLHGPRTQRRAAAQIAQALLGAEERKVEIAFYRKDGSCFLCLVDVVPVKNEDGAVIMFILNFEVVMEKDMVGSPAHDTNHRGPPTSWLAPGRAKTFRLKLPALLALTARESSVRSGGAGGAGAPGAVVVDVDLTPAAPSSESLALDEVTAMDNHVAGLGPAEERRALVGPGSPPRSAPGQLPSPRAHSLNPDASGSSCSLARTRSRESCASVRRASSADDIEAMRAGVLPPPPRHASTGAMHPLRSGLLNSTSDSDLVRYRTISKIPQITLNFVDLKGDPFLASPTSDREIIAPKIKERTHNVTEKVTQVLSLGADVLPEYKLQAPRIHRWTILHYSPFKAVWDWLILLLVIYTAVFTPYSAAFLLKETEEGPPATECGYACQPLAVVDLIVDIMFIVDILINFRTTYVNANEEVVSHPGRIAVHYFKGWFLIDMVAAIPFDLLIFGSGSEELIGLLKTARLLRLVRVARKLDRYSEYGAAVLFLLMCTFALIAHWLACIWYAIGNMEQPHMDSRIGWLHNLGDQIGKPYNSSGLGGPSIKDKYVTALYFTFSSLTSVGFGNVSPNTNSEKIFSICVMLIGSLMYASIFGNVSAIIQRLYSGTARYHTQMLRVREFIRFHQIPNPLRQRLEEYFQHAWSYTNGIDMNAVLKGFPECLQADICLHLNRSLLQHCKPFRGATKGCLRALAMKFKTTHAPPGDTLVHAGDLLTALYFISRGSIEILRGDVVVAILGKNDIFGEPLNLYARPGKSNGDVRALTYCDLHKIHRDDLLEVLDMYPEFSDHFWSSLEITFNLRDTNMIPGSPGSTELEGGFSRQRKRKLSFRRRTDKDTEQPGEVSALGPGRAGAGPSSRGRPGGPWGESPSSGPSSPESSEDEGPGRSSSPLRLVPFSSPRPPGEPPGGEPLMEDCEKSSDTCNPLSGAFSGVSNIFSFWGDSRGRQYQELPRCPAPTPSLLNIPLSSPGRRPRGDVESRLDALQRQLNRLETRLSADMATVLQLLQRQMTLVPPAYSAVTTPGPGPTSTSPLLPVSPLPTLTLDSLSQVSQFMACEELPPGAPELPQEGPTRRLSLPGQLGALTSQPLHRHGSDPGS
row,Structure (SMILES),"hERG current change (%, negative = inhibition) at 10uM [%]"
1,COc1cccc(/C=N/N2CCN(Cc3ccccc3)CC2)c1O,9.43
2,CN(CC(=O)Nc1ccccn1)S(=O)(=O)c1ccc(Cl)cc1,-9.34
3,COC(=O)C1=C(c2cccc(OCc3ccccc3)c2)C[C@@H]2CC[C@H]1N2C(=O)NCc1ccccc1C(F)(F)F,9.54
4,Cc1cc(N2C(=O)C(O)=C(C(=O)c3cccs3)C2c2cccc(Br)c2)no1 (centres unmarked),6.05
5,Cc1ccc(C(=O)NCC(=O)OCCOc2cccc(Cl)c2)cc1,-7.72
6,CNC(=S)N1CCN(C(=O)c2ccco2)CC1,0.461
7,CCOc1c(C#N)c(C#N)c2nc(C)cc(C)n12,-13.1
8,COc1ccc2nc(NC(=O)C3CCCN(S(=O)(=O)c4c(C)noc4C)C3)sc2c1 (centres unmarked),5.83
9,COc1ccc(OC)c(NC(=O)C2C(C(=O)O)C3(Cl)C(Cl)=C(Cl)C2(Cl)C3(Cl)Cl)c1 (centres unmarked),7.73
10,CCn1cc([N+](=O)[O-])c(C(=O)Nc2nc(-c3ccc(C)c(C)c3)c(C)s2)n1,4.16
11,Cn1nc(C(=O)N2CCN(c3ccc(Cl)cc3)CC2)c2c1-c1ccccc1S(=O)(=O)C2,-51.2
12,C[C@@H](NC(=O)[C@@H]1Cc2ccccc2CN1)C(=O)NC1CCCC1,8.92
13,COc1cc(C(=O)N[C@H](C(=O)Nc2nnc(C3CC3)s2)C(C)C)cc(OC)c1OC,-10.1
14,Cc1ncccc1C(=O)N1CCCC(CNC(=O)c2ccc(-c3ccccc3)cc2)C1 (centres unmarked),-15.5
15,Cc1ccccc1N,14.8
16,CCOC(=O)c1c(C)[nH]c(C(=O)N(C)CC(=O)Nc2ccc(OC)cc2)c1C,-4.37
17,COC(=O)c1[nH]c2cc(OC)c(OC)cc2c1NC(=O)Oc1ccccc1,2.91
18,CC1C(=O)N2CCCc3cc(S(=O)(=O)Nc4ccccc4C(N)=O)cc1c32 (centres unmarked),0.107
19,O=C(COC(=O)/C=C/c1ccc(Cl)cc1Cl)Nc1cc(C(F)(F)F)ccc1N1CCOCC1,8.56
20,Cc1c(Cl)cccc1N(CC(=O)O)S(C)(=O)=O,28.2
21,COc1ccccc1OCC(=O)NN=C(Cc1ccccc1)Cc1ccccc1,-17.7
22,COc1ccccc1C(CC(N)=O)c1ccco1 (centres unmarked),10.1

row,Structure (SMILES),"hERG current change (%, negative = inhibition) at 10uM [%]"
1,CC(C)CN1C(=O)c2ccc(NC(=O)c3ccccc3F)cc2C1=O,-8.67
2,CCOc1ccc(NC(=O)COC(=O)Cn2cnnn2)cc1OCC,4.16
3,Cc1ccc(NC(=S)NCCc2ccc(F)cc2)c(C)c1,-4.63
4,COc1ccc(CC(=O)NNS(=O)(=O)c2ccccc2[N+](=O)[O-])cc1OC,10.9
5,CCc1nc2oc3cc(OC)ccc3c(=O)c2c(=O)n1Cc1ccccc1,-11.6
6,COc1cccc(-c2ccc(SCC(=O)NC3CCCCC3)nn2)c1,-37
7,CCC(C(=O)Nc1ccccc1-c1ccccc1)c1ccccc1 (centres unmarked),-8.86
8,O=C1CN(C(=O)NCC(=O)N[C@H](Cc2ccccc2)C(=O)O)c2ccccc2N1,16.8
9,COc1ccc(/C=N/n2c(=O)[nH]c3c([nH]c4ccc(F)cc43)c2=O)cc1CN1CCCCC1,-19.1
10,CN1C(C(=O)c2ccccc2)=C(N)c2ccccc2S1(=O)=O,11.4
11,COc1cc(C(=O)Nc2ccccc2-c2nnn(CC(N)=O)n2)cc(OC)c1OC,7.35
12,Cc1ccccc1NC(=O)COC(=O)CN1C(=O)NC(C)(C)C1=O,0.057
13,CC(C)Oc1cccc(C(=O)NC(=S)Nc2ccc(Cl)c(C(=O)O)c2)c1,3.07
14,O=C(CSc1nnc(-c2cccnc2)n1Cc1ccco1)c1ccc(Br)cc1,-63.8
15,CC(SCc1ccccc1)C(=O)Nc1ccc(F)cc1 (centres unmarked),-2.13
16,CCN(C(=O)c1cc2cccc(OC)c2oc1=O)c1ccccc1,10.4
17,O=C(CCl)NCCN1C(=O)S/C(=C\c2cccnc2)C1=O,26.1
18,NC(=O)c1ccc(/C=N/O)nc1,21.6
19,Nc1nc(Cl)nc(N(c2ccccc2)c2ccccc2)n1,-2.83
20,Cc1ccc(C(=O)Nc2c(C(=O)N3CCOCC3)cnn2-c2ccccc2)cc1,-3.23
21,CCOC(=O)c1cnc2c(-c3ccc(Cl)cc3)cnn2c1C,13.8
22,CN(C(=O)CN1C(=O)c2cccc(N)c2C1=O)C1CCCCC1,12

row,Structure (SMILES),"hERG current change (%, negative = inhibition) at 10uM [%]"
1,O=C(Nc1ccccc1-c1nnc(SCc2ccccc2)o1)c1ccccc1,0.444
2,CSc1ccc(-c2nc3cnccn3c2Nc2ccc3c(c2)OCO3)cc1,-10.6
3,COC(=O)c1cc(C(=O)Nn2cnnc2)cc([N+](=O)[O-])c1,16.3
4,CCCCn1c(N)c(N(CCOC)C(=O)c2ccc(N3CCCC3)c([N+](=O)[O-])c2)c(=O)[nH]c1=O,7.67
5,O=C(Cn1cc(F)c(=O)[nH]c1=O)NCCO,6.95
6,Cc1ccc(C2N=C(N)Nc3nc(=O)c4ccccc4n32)cc1 (centres unmarked),11.1
7,CCOC(=O)C1=C(O)c2ccccc2C(=O)/C1=C\c1ccc(CC)cc1,-0.249
8,O=C(N/N=C/c1ccc(Cl)c([N+](=O)[O-])c1)c1ccc2nc[nH]c2c1,22.6
9,COc1ccc(CCNC(=S)NC(=O)c2c(-c3ccccc3Cl)noc2C)cc1OC,0.196
10,CC(=O)Nc1ccc(NC(=O)C(C)NC(C)c2cccc3ccccc23)cc1 (centres unmarked),9.12
11,COc1ccc(NC(=O)OCC(C)C)cc1OC,15.9
12,Cc1ccc(S(=O)(=O)NC(C(=O)Oc2cc3oc(=O)cc(C)c3cc2Cl)C(C)C)cc1 (centres unmarked),-34.3
13,c1ccc(-c2oc3ncnc(NCCN4CCOCC4)c3c2-c2ccccc2)cc1,-21.3
14,CC1CCCN(CCCNC(=O)CCn2nc(-c3ccccc3)ccc2=O)C1 (centres unmarked),-39
15,CN(C1=C(NC(=O)c2ccccc2)C(=O)c2ccccc2C1=O)C1CCS(=O)(=O)C1 (centres unmarked),-38.2
16,Cc1cccc(-c2nnc(SCc3ccc(C#N)cc3)n2Cc2ccco2)c1,-89
17,CCOc1ccc(NC(=O)CCC(=O)c2ccc(OC)cc2)cc1,4.05
18,COc1ccc(S(=O)(=O)NC(C)C)cc1C(=O)NC1CCCCC1,6.82
19,Cc1ccnc(N2CCC(C(=O)NNC(=O)c3ccncc3)CC2)n1,10.5
20,Cc1cccc(N(CC(=O)NC2CCCCC2)C(=O)CCC(=O)Nc2ccccn2)c1,9.74
21,OCCN1CCOCCOCCN(CCO)CCN(CCO)CC1,20.6
22,[O-][n+]1onc2c1CCc1[nH]c(-c3ccccc3)nc1-2,35.7

row,Structure (SMILES),"hERG current change (%, negative = inhibition) at 10uM [%]"
1,O=C(Nc1cccc2cccnc12)c1ccc(Br)o1,-12.3
2,O=[N+]([O-])c1cc(Br)c(O)c(C=Nc2ccc(N3CCOCC3)cc2)c1,13.6
3,COc1cccc(N(CC(=O)NC2CCCC2)C(=O)CCC(=O)Nc2nccs2)c1,10.7
4,COc1cc([N+](=O)[O-])cc(/C=N/NC(=O)C(C)Nc2cccc3ccccc23)c1O (centres unmarked),48.9
5,CC(=O)N1c2ccccc2[C@@H](C)[C@@H]1C,1.84
6,COCCn1c(COC)nc2ccccc21,5.1
7,COc1cc(C#Cc2c(-c3ccccc3)n(C)c3ccccc23)cc(OC)c1,2.18
8,CCCCCCc1cc2cc(S(=O)(=O)c3ccc(F)cc3)c(=O)oc2cc1O,1.78
9,CC(=O)OC[C@H]1O[C@@H](n2ccc(=O)[nH]c2=S)C(OC(C)=O)C1OC(C)=O (some centres unmarked),-4.01
10,O=C(NNC(=O)c1cc2ccccc2oc1=O)c1ccccc1,-17
11,O=C(NCC(c1ccc(F)cc1)N1CCOCC1)c1ccccc1F (centres unmarked),19.5
12,COC(=O)c1ccccc1NC(=O)CN1CCN(C23CC4CC(CC(C4)C2)C3)CC1,-77.5
13,CCN(CC)C(=O)C1CCCN(c2ccc([N+](=O)[O-])cc2/C=N/NC(=O)c2cccc([N+](=O)[O-])c2)C1 (centres unmarked),-55.3
14,Cc1ccc(C(=O)N/C(=C\c2cccs2)C(=O)N2CCOCC2)cc1C,-19
15,CCOC(=O)N1CCN(C(=O)c2ccc3c(=O)n(CC4CCCO4)c(=S)[nH]c3c2)CC1 (centres unmarked),-5.29
16,COc1ccc(C(=O)N2CCN(c3cccc(Cl)c3)CC2)c(OC)c1,-44.6
17,COc1ccc(NC(=O)c2ccc3c(c2)NC(=O)CS3)cc1S(=O)(=O)Nc1ccc(Br)cc1,7.21
18,CN(c1ccc(C(=O)N2CCN(c3ccccc3F)CC2)cc1)S(=O)(=O)c1ccccc1,-42.4
19,CCOc1ccc(N(Cc2cc3ccc(C)cc3[nH]c2=O)S(=O)(=O)c2ccccc2)cc1,18.9
20,COCCN1C(=S)NC(c2cccc(C(F)(F)F)c2)C(C(=O)N2CCOCC2)=C1C (centres unmarked),-5.05
